The other results are listed elsewhere or left out.
The sequences below were run against T1, MBP-FoxP1dN (Mus musculus, UniProt P58462 326-579) (assay: PD-seq (MBP pull-down with sequencing); 20 mM Tris-HCl pH 7.5, 100 mM NaCl, 1.5 mM MgCl2, 0.4 uM protein, 0.1 uM dsDNA library, 30 min, room temperature, amylose pull-down; high values mean tight binding). Details: protein: recombinant; tags: His6-MBP; chain copies: 2; dsDNA, one strand shown.
T1 sequence: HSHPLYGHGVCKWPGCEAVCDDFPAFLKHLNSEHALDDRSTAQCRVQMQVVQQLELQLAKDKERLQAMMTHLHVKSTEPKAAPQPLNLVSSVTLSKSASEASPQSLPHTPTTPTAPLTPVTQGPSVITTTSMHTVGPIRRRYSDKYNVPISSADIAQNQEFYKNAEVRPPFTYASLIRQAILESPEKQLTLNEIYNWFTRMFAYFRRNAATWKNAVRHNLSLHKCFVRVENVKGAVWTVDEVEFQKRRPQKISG
Outline: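 In Tris pH 7.5 buffer with NaCl and MgCl2, 0.4 µM His6-MBP-tagged mouse FoxP3 or FoxP1 fragment lacking the N-terminus, from E. coli, met 0.1 µM Klenow-filled double-stranded degenerate DNA library for 30 min at room temperature. Three washes on amylose resin followed capture of the complexes, then proteinase K release of DNA, PCR barcoding and Illumina sequencing. Binding is taken as pooled-replicate reads-per-million enrichment of pull-down relative to input.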
“GATGATTGTTCTCCCAGCTGATGAATTGCTTCTATCGAGTAAACAAATTTTCCTAATCTTTCTGTTCAAGCGCCATCTAC” was tested, and the binding signal was 1.08 RPM ratio (pull-down/input).
With “GATGATTGTTCTCCCAGCTGATGAATTCGACTGCTCGAGTAAACAAATTTTCCTAATCTTTCTGTTCAAGCGCCATCTAC” the binding signal was 0.795 RPM ratio (pull-down/input).
With “GATGATTGTTCTCCCAGCTGATGAATTGTACCGCTCGAGTAAACAAATTTTCCTAATCTTTCTGTTCAAGCGCCATCTAC” the binding signal was 0.843 RPM ratio (pull-down/input).
For “GATGATTGTTCTCCCAGCTGATGAATTGTCGCGATCGAGTAAACAAATTTTCCTAATCTTTCTGTTCAAGCGCCATCTAC”, the binding signal was 0.957 RPM ratio (pull-down/input).
For “GATGATTGTTCTCCCAGCTGATGAATTACGATAATCGAGTAAACAAATTTTCCTAATCTTTCTGTTCAAGCGCCATCTAC”, the binding signal was 1.37 RPM ratio (pull-down/input).
In the case of “GATGATTGTTCTCCCAGCTGATGAATTCCACTATTCGAGTAAACAAATTTTCCTAATCTTTCTGTTCAAGCGCCATCTAC”, the binding signal is reported as 0.975 RPM ratio (pull-down/input).
With “GATGATTGTTCTCCCAGCTGATGAATTAAAAGGTTCGAGTAAACAAATTTTCCTAATCTTTCTGTTCAAGCGCCATCTAC” the binding signal was 0.791 RPM ratio (pull-down/input).
In the case of “GATGATTGTTCTCCCAGCTGATGAATTTGTGGATTCGAGTAAACAAATTTTCCTAATCTTTCTGTTCAAGCGCCATCTAC”, the binding signal is reported as 1.09 RPM ratio (pull-down/input).
For “GATGATTGTTCTCCCAGCTGATGAATTTTGTCGTTCGAGTAAACAAATTTTCCTAATCTTTCTGTTCAAGCGCCATCTAC”, the binding signal was 1.17 RPM ratio (pull-down/input).
In the case of “GATGATTGTTCTCCCAGCTGATGAATTGCTATTGTCGAGTAAACAAATTTTCCTAATCTTTCTGTTCAAGCGCCATCTAC”, the binding signal is reported as 2.28 RPM ratio (pull-down/input).
With “GATGATTGTTCTCCCAGCTGATGAATTCAGAAATTCGAGTAAACAAATTTTCCTAATCTTTCTGTTCAAGCGCCATCTAC” the binding signal was 0.848 RPM ratio (pull-down/input).
For “GATGATTGTTCTCCCAGCTGATGAATTTAGGAACTCGAGTAAACAAATTTTCCTAATCTTTCTGTTCAAGCGCCATCTAC”, the binding signal was 0.965 RPM ratio (pull-down/input).
In the case of “GATGATTGTTCTCCCAGCTGATGAATTATGTGGGTCGAGTAAACAAATTTTCCTAATCTTTCTGTTCAAGCGCCATCTAC”, the binding signal is reported as 0.922 RPM ratio (pull-down/input).
For “GATGATTGTTCTCCCAGCTGATGAATTCAGACGCTCGAGTAAACAAATTTTCCTAATCTTTCTGTTCAAGCGCCATCTAC”, the binding signal was 0.891 RPM ratio (pull-down/input).
For “GATGATTGTTCTCCCAGCTGATGAATTGGCTGGTTCGAGTAAACAAATTTTCCTAATCTTTCTGTTCAAGCGCCATCTAC”, the binding signal was 0.864 RPM ratio (pull-down/input).
“GATGATTGTTCTCCCAGCTGATGAATTCTGAACATCGAGTAAACAAATTTTCCTAATCTTTCTGTTCAAGCGCCATCTAC” was tested, and the binding signal was 0.898 RPM ratio (pull-down/input).
For “GATGATTGTTCTCCCAGCTGATGAATTAGGTGAGTCGAGTAAACAAATTTTCCTAATCTTTCTGTTCAAGCGCCATCTAC”, the binding signal was 0.866 RPM ratio (pull-down/input).
For “GATGATTGTTCTCCCAGCTGATGAATTCTCATGGTCGAGTAAACAAATTTTCCTAATCTTTCTGTTCAAGCGCCATCTAC”, the binding signal was 0.904 RPM ratio (pull-down/input).
For “GATGATTGTTCTCCCAGCTGATGAATTTCCCTGATCGAGTAAACAAATTTTCCTAATCTTTCTGTTCAAGCGCCATCTAC”, the binding signal was 0.835 RPM ratio (pull-down/input).
For “GATGATTGTTCTCCCAGCTGATGAATTGTACTTTTCGAGTAAACAAATTTTCCTAATCTTTCTGTTCAAGCGCCATCTAC”, the binding signal was 1.04 RPM ratio (pull-down/input).
With “GATGATTGTTCTCCCAGCTGATGAATTCAGAGACTCGAGTAAACAAATTTTCCTAATCTTTCTGTTCAAGCGCCATCTAC” the binding signal was 0.821 RPM ratio (pull-down/input).
For “GATGATTGTTCTCCCAGCTGATGAATTCCAAACATCGAGTAAACAAATTTTCCTAATCTTTCTGTTCAAGCGCCATCTAC”, the binding signal was 1.6 RPM ratio (pull-down/input).
For “GATGATTGTTCTCCCAGCTGATGAATTAACCCTCTCGAGTAAACAAATTTTCCTAATCTTTCTGTTCAAGCGCCATCTAC”, the binding signal was 0.849 RPM ratio (pull-down/input).
With “GATGATTGTTCTCCCAGCTGATGAATTCGAGCATTCGAGTAAACAAATTTTCCTAATCTTTCTGTTCAAGCGCCATCTAC” the binding signal was 1.12 RPM ratio (pull-down/input).
With “GATGATTGTTCTCCCAGCTGATGAATTTAACATTTCGAGTAAACAAATTTTCCTAATCTTTCTGTTCAAGCGCCATCTAC” the binding signal was 0.988 RPM ratio (pull-down/input).
For “GATGATTGTTCTCCCAGCTGATGAATTTGTGTCGTCGAGTAAACAAATTTTCCTAATCTTTCTGTTCAAGCGCCATCTAC”, the binding signal was 1.23 RPM ratio (pull-down/input).
“GATGATTGTTCTCCCAGCTGATGAATTCAGATTCTCGAGTAAACAAATTTTCCTAATCTTTCTGTTCAAGCGCCATCTAC” was tested, and the binding signal was 0.825 RPM ratio (pull-down/input).
With “GATGATTGTTCTCCCAGCTGATGAATTCCCAGATTCGAGTAAACAAATTTTCCTAATCTTTCTGTTCAAGCGCCATCTAC” the binding signal was 0.781 RPM ratio (pull-down/input).
“GATGATTGTTCTCCCAGCTGATGAATTGAAACTCTCGAGTAAACAAATTTTCCTAATCTTTCTGTTCAAGCGCCATCTAC” was tested, and the binding signal was 0.736 RPM ratio (pull-down/input).
“GATGATTGTTCTCCCAGCTGATGAATTGAACTGATCGAGTAAACAAATTTTCCTAATCTTTCTGTTCAAGCGCCATCTAC” was tested, and the binding signal was 0.826 RPM ratio (pull-down/input).
For “GATGATTGTTCTCCCAGCTGATGAATTATATGCCTCGAGTAAACAAATTTTCCTAATCTTTCTGTTCAAGCGCCATCTAC”, the binding signal was 1.05 RPM ratio (pull-down/input).
In the case of “GATGATTGTTCTCCCAGCTGATGAATTCGAAGTCTCGAGTAAACAAATTTTCCTAATCTTTCTGTTCAAGCGCCATCTAC”, the binding signal is reported as 0.816 RPM ratio (pull-down/input).
With “GATGATTGTTCTCCCAGCTGATGAATTGTGTCGTTCGAGTAAACAAATTTTCCTAATCTTTCTGTTCAAGCGCCATCTAC” the binding signal was 1.08 RPM ratio (pull-down/input).
With “GATGATTGTTCTCCCAGCTGATGAATTGTGCGATTCGAGTAAACAAATTTTCCTAATCTTTCTGTTCAAGCGCCATCTAC” the binding signal was 1.01 RPM ratio (pull-down/input).
For “GATGATTGTTCTCCCAGCTGATGAATTTACGACATCGAGTAAACAAATTTTCCTAATCTTTCTGTTCAAGCGCCATCTAC”, the binding signal was 1.34 RPM ratio (pull-down/input).
“GATGATTGTTCTCCCAGCTGATGAATTCCGCCGTTCGAGTAAACAAATTTTCCTAATCTTTCTGTTCAAGCGCCATCTAC” was tested, and the binding signal was 0.826 RPM ratio (pull-down/input).
“GATGATTGTTCTCCCAGCTGATGAATTCGGGTTCTCGAGTAAACAAATTTTCCTAATCTTTCTGTTCAAGCGCCATCTAC” was tested, and the binding signal was 0.806 RPM ratio (pull-down/input).
With “GATGATTGTTCTCCCAGCTGATGAATTGCCTCACTCGAGTAAACAAATTTTCCTAATCTTTCTGTTCAAGCGCCATCTAC” the binding signal was 0.917 RPM ratio (pull-down/input).
In the case of “GATGATTGTTCTCCCAGCTGATGAATTCGGCCCGTCGAGTAAACAAATTTTCCTAATCTTTCTGTTCAAGCGCCATCTAC”, the binding signal is reported as 0.768 RPM ratio (pull-down/input).
With “GATGATTGTTCTCCCAGCTGATGAATTATACCACTCGAGTAAACAAATTTTCCTAATCTTTCTGTTCAAGCGCCATCTAC” the binding signal was 0.968 RPM ratio (pull-down/input).
